Laboratory results published in PubChem BioAssay AID1030 (National Center for Advancing Translational Sciences (NCATS), 2008).
Among all 220,000 compounds or so, about 16,000 (7.3%) were called active. Inconclusive results, whose numbers are uncertain, are shown with a selection of clear calls. Calls come from the whole dose curve; as a rule, active = well fitted inhibition curve with a large enough effect (not every such curve was filed as active); inconclusive = small, poorly fitted or top-dose-only effect, or another doubt; inactive = no such curve, though single readings can be large or run the other way. Potencies of inconclusive entries are left out as doubtful fits.

These compounds were tested against Aldehyde dehydrogenase 1A1 (Homo sapiens) (UniProt P00352) (assay: qHTS Assay for Inhibitors of Aldehyde Dehydrogenase 1 (ALDH1A1)). Conditions: Purified ALDH1A1, NADH fluorescence, propionaldehyde substrate; series mostly up to 75.3 µM.
Potency is the fitted concentration of half-maximal effect; tags give direction and shape of the fitted curve.

Sequence of UniProt P00352 (P00352 whole entry, looked up): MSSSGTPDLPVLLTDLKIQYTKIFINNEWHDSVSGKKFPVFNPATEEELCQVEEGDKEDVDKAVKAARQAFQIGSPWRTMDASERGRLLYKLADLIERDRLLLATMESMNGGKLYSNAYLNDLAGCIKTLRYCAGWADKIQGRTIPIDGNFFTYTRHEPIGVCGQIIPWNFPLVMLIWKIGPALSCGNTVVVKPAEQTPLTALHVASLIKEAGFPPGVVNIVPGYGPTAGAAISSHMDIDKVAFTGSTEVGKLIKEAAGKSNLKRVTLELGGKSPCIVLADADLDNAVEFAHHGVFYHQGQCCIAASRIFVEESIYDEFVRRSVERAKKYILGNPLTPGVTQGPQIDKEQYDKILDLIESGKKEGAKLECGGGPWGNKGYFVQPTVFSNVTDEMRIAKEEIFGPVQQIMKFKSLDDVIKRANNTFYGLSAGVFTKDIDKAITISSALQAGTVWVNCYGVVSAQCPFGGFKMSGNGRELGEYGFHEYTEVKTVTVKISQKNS

Q: Which Potency does the source give for `Clc1ccccc1N/N=C/c1ccc2c(c1)OCO2` here?
A: inconclusive [inhibitor, single point]

Q: For `Cc1ccc(NC(=O)CSc2ccc(-c3ccco3)nn2)c(C)c1`, which Potency is on record?
A: inconclusive [inhibitor, single point]

Q: For `CCOc1ncccc1C(=O)OCC(=O)c1cc(C)n(Cc2ccco2)c1C`, which Potency is on record?
A: inactive

Q: How did the Potency turn out when `CCOc1ccc(C2C(C(=O)c3ccco3)=C(O)C(=O)N2CCCn2ccnc2)cc1` (stereo unspecified) was run?
A: inconclusive [inhibitor, partial curve, poor fit]

Q: How did the Potency turn out when `Cc1ccc(-n2nc3c([n+]2[O-])CCc2nonc2-3)cc1` was run?
A: inconclusive [inhibitor, partial curve]

Q: With `COCCCNC(=O)c1ccc2c(=O)n(CC3CCCO3)c(=S)[nH]c2c1` (stereo unspecified) as the compound, how does the Potency read?
A: inconclusive [inhibitor, partial curve]

Q: With `COC(=O)c1cc2oc(C)cc2n1CC(=O)N1CCCc2ccccc21` as the compound, how does the Potency read?
A: active: 20 µM

Q: With `Oc1ccc(/C=N/NC2=NCCCCC2)c(O)c1` as the compound, how does the Potency read?
A: inconclusive [inhibitor, partial curve]

Q: With `O=C(CSc1nnc(COc2ccccc2)n1Cc1ccco1)c1ccc(F)cc1` as the compound, how does the Potency read?
A: inconclusive [inhibitor, partial curve]

Q: With `CCOC(=O)C1CCCN(C(=O)c2ccc(OC)c([N+](=O)[O-])c2)C1` (stereo unspecified) as the compound, how does the Potency read?
A: active: 4.47 µM

Q: For `COc1ccc(/C=N/NC(=O)c2ccncc2)cc1Cn1nc([N+](=O)[O-])c(Br)c1C`, which Potency is on record?
A: inconclusive [inhibitor, single point]

Q: Which Potency does the source give for `CCOc1cc(S(=O)(=O)n2nc(C)cc2C)ccc1F` here?
A: inconclusive [inhibitor, single point]

Q: With `CC(C)CCNC(=O)CCS(=O)(=O)c1cccc2nonc12` as the compound, how does the Potency read?
A: active: 10 µM

Q: For `COCCOC(=O)C1=C(C)N=C2SCCC(=O)N2C1/C=C/c1ccccc1` (stereo unspecified), which Potency is on record?
A: inconclusive [inhibitor, single point]

Q: For `COc1cccc(NC(=O)CN(C)CC(=O)Nc2ccccc2-c2ccccc2)c1`, which Potency is on record?
A: inconclusive [inhibitor, single point]

Q: With `COc1ccccc1-n1c(SCC(=O)O)nc2sc3c(c2c1=O)CCC3` as the compound, how does the Potency read?
A: inconclusive [inhibitor, single point]

Q: How did the Potency turn out when `C/C=C(\C)C(=O)O[C@H]1CC(C)=C2C(=O)C=C(C)C2[C@@H]2OC(=O)[C@@](C)(OC(=O)C=C(C)C)C21` (stereo partly specified) was run?
A: inconclusive [inhibitor, partial curve]

Q: With `Cc1cc(NCCOCCO)n2ncc(-c3ccc(Cl)cc3)c2n1` as the compound, how does the Potency read?
A: inconclusive [inhibitor, single point]

Q: Which Potency does the source give for `CCCNC(=O)[C@H]1O[C@@H]1C(=O)N[C@H](C(=O)N1CCC[C@H]1C(=O)OC)[C@@H](C)CC` here?
A: inactive

Q: How did the Potency turn out when `OCCCNC(=S)Nc1ccc(Oc2ccccc2)cc1` was run?
A: inconclusive [inhibitor, single point]

Q: With `COc1ccc(C(=O)/C=C/Nc2cccc(C)n2)cc1OC` as the compound, how does the Potency read?
A: inconclusive [inhibitor, partial curve]

Q: Which Potency does the source give for `CCOCCOC(=O)COc1ccc2c(-c3ccccc3)cc(=O)oc2c1` here?
A: active: 17.8 µM

Q: How did the Potency turn out when `CCCN1CCC(NC(=S)Nc2ccc([N+](=O)[O-])cc2)CC1` was run?
A: inactive

Q: With `Cc1oc(-c2cccs2)nc1CN1CCC(c2ccccc2)CC1` as the compound, how does the Potency read?
A: inactive

Q: `Cc1cc2c(SCc3ccccc3Cl)nc(N)nc2nc1C` was tested. Which Potency did it give?
A: inconclusive [inhibitor, single point]

Q: Which Potency does the source give for `COc1ccc(N2CCN(c3nc(=S)n(-c4ccccc4)c(C)c3C(C)=O)CC2)cc1` here?
A: inconclusive [inhibitor, single point]

Q: For `Cc1ccc(NC(=O)c2cc([N+](=O)[O-])ccc2NCc2cccnc2)cc1`, which Potency is on record?
A: inconclusive [inhibitor, single point]

Q: For `CCN(CC)S(=O)(=O)c1ccc(C)c(NC(=O)COc2ccc3c(C)cc(=O)oc3c2)c1`, which Potency is on record?
A: inconclusive [inhibitor, partial curve]

Q: Which Potency does the source give for `O=c1c(-c2cc(F)cc(F)c2)nc2cncnc2n1C1CC1` here?
A: inactive

Q: `O=C(CC(C(=O)N1CCc2ccccc21)n1ccnc1)NCc1ccccc1` (stereo unspecified) was tested. Which Potency did it give?
A: inactive

Q: Which Potency does the source give for `CCCn1cc(SCC(=O)NCc2ccco2)c2ccccc21` here?
A: inconclusive [inhibitor, partial curve]

Q: For `Cc1nnc(SCC(=O)O)s1`, which Potency is on record?
A: inactive

Q: `CN(C)S(=O)(=O)Oc1cccc(C(=O)Nc2cccc(Cl)c2)c1` was tested. Which Potency did it give?
A: active: 0.794 µM

Q: `O=C1NCC(c2ccccc2)C1C(=O)N/N=C/c1ccc(Cl)s1` (stereo unspecified) was tested. Which Potency did it give?
A: inactive

Q: How did the Potency turn out when `COc1cc(CC(=O)Nc2sccc2C(N)=O)cc(OC)c1OC` was run?
A: inconclusive [inhibitor, single point]

Q: With `O=C(NCC1CCCO1)c1ccc(N2CCCCC2)nc1` (stereo unspecified) as the compound, how does the Potency read?
A: inconclusive [inhibitor, single point]

Q: Which Potency does the source give for `Cc1cc(C)nc(N(C#N)CCOc2ccccc2)n1` here?
A: inconclusive [inhibitor, partial curve]

Q: Which Potency does the source give for `COc1ccccc1CN1C(=O)C(=O)N(Cc2cccc(C)c2)C1=O` here?
A: inactive

Q: How did the Potency turn out when `Cc1cc(C)c(C#N)c(N2CCSCC2)n1` was run?
A: inconclusive [inhibitor, single point]

Q: How did the Potency turn out when `O=C(CNC(=O)c1ccco1)OCc1ccc(Cl)cc1` was run?
A: inconclusive [inhibitor, single point]

Q: How did the Potency turn out when `O=S(=O)(/N=C(/c1ccccc1)N1CCCCC1)c1ccccc1` was run?
A: inconclusive [inhibitor, partial curve]

Q: How did the Potency turn out when `CCN(CC)c1ccc(/C=N/NC(=O)c2c[nH]c3ccccc23)cc1` was run?
A: inconclusive [inhibitor, partial curve]

Q: `CCCCC[C@H](O)/C=C/C=C\C/C=C\C/C=C\CCCC(=O)O` was tested. Which Potency did it give?
A: inactive

Q: For `CCc1cccc(NC(=O)CCS(=O)(=O)c2cccc3nonc23)c1`, which Potency is on record?
A: inconclusive [inhibitor, single point]

Q: How did the Potency turn out when `COCCNC(=O)CSc1nc2cc(OC)c(OC)cc2c(=O)n1Cc1ccco1` was run?
A: active: 2.24 µM

Q: For `CCOC(=O)c1c(C)oc2c1c(C=NCC1CCCO1)c(O)c1ccccc12` (stereo unspecified), which Potency is on record?
A: inactive
